61 compounds from PubChem BioAssay AID485344 (National Center for Advancing Translational Sciences (NCATS), 2010) can be followed below.

SMILES strings stand for the structures. About 6,900 (2%) of roughly 340,000 compounds were called active. Rule as the data show it: active = inhibition above about 30%; inactive = below that, where a call was filed. This is a selection; strong and weak results do not stand in their true shares. The source gives no active or inactive call for entries shown without one.

Sequence of UniProt P14416 (P14416 whole entry, looked up): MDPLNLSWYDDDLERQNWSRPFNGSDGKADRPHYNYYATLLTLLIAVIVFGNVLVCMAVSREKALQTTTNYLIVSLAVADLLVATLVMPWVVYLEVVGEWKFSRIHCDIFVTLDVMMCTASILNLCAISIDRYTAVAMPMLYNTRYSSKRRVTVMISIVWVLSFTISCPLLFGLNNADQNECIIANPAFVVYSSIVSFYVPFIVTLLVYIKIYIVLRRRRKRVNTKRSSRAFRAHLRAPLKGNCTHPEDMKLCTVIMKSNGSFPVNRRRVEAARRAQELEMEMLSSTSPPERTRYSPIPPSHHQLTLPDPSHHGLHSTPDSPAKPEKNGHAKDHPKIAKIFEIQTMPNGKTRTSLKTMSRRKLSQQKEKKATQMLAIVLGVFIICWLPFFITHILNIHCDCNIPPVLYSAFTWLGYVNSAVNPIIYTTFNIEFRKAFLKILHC

In the assay the target is D(2) dopamine receptor (Homo sapiens) (UniProt P14416). Briefly: HTS Assay for Allosteric Antagonists of the Human D2 Dopamine Receptor: Primary Screen for Antagonists. Also: 0% is about no effect. The following applies: HEK293 TREx D2 cells, calcium flux, dopamine EC80; at 10 µM; stronger effect = higher value. Summed up:
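Overnight-induced (tetracycline, 30 C) HEK293 T-REx cells carrying force-coupled D2 receive a no-wash calcium dye, then compound, then EC80 dopamine at 180 s; signals are read kinetically throughout.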
(A change in cytosolic calcium serves as a functional read-out for many receptors and channels.)
For the compound `Clc1ccccc1OCc1nnc(-c2ccccc2Br)o1`, the inhibition – broadly, the relative decrease from the control value, in per cent – was active: 36.2%. In the case of `CCOC(=O)c1c(NC(=O)c2cc(-c3ccc(OC)c(OC)c3)on2)sc2c1CCCC2` it was -8.74%; in that of `O=C(CN1C(=O)CCSc2ccc(S(=O)(=O)N3CCCC3)cc21)Nc1cccc(F)c1`, 6.44%. In the case of `CCOC(=O)C(C)NC(=O)c1c2c(nc3ccccc13)C(=O)N(C1CCCCC1)C2` (stereo unspecified) it was 7.45%.

`COc1cc(C(c2c(C)[nH][nH]c2=O)c2c(C)[nH][nH]c2=O)ccc1OC(=O)c1ccccc1OC`: the inhibition came out at 10.8%. On to `COC(=O)CC1Oc2ccccc2-n2cc(-c3ccc(F)cc3)nc21` (stereo unspecified), for which the inhibition is 11.9%.

In the case of `COc1ccc(CCNC(=O)CN(c2ccccc2)S(=O)(=O)N(C)C)cc1OC`, the inhibition is -21.1%. In the case of `CC(=O)N1CCC(N(CCCOC(C)C)C(=O)Nc2ccc(C)c(C)c2)CC1` it was 5.17%.

As for `Cc1ccc(NC(=O)c2oc3ccc(S(=O)(=O)N4CCC5(CC4)OCCO5)cc3c2C)cc1Cl`, the inhibition is -12.7%. In the case of `CCc1cccc(C)c1NC(=O)CSc1nc2ccccc2nc1Cc1ccccc1`, the inhibition was -27.3%. Under `COc1ccc(-c2nc3cc(NC(=O)COc4ccccc4C)ccc3o2)cc1` stands -16.5%; under `CC(C)CN(CCNC(=O)CCN1N=C(c2ccccc2)CCC1=O)CC(C)C`, -9.7%; under `COc1ccc2c(C)c(CC(=O)NCc3ccccc3Cl)c(=O)oc2c1OC`, 5.94%. Consider `CCSc1nc2ccccc2c(OCc2ccc(Cl)cc2)c1C(=O)OC`, for which the inhibition is -1.78%.

Take `COc1ccc2c(c1)c1c(c(=O)n(CCc3ccccc3)c(=O)n1Cc1cccc(F)c1)n2C`: the inhibition is 13.4%. As for `CCc1ccccc1NC(=O)c1ccc2c(c1)CCCN2S(C)(=O)=O`, the inhibition is -9.27%. As for `Cc1ccc(-c2onc(C)c2C)cc1S(=O)(=O)Nc1ccccn1`, the inhibition was determined as 1.75%. For the compound `COc1ccc(Cn2c(CO)cnc2SCc2ccc(C)cc2)cc1`, the inhibition was -26.4%. Under `CC(C)(C)OC(=O)N1CCC(c2c(C(=O)N3CCN(Cc4ccccc4)CC3)cnn2-c2cccc(Cl)c2)CC1` stands 3.24%. As to `CN(C)S(=O)(=O)N1CCC(n2c(C(F)(F)F)nc3cccnc32)CC1`, the inhibition is -0.601%. Consider `Cc1cccc(NC(=O)CSC2=Nc3ccccc3C3=NC(CCC(=O)NCc4ccco4)C(=O)N23)c1` (stereo unspecified), for which the inhibition came to 15.8%. For `COc1cc(OC)c(NC(=O)Cn2ncn3c(cc4cc(C)ccc43)c2=O)cc1Cl`, the inhibition is -4.11%. In the case of `COc1ccccc1CNC(=O)Cn1cc2c(n1)-c1c(oc(C(=O)N3CCOCC3)c1C)CC2`, the inhibition was -7.99%. Under `COC(=O)c1sccc1S(=O)(=O)N(CC(=O)Nc1cccc(C)c1C)c1ccc(C)c(C)c1` stands -4.7%; under `CN(C)c1ccc(-c2nnc(SCC3CCCO3)n2C)cc1` (stereo unspecified), active: 31.6%. In the case of `CCc1ccc(-c2cn3nc(CC)sc3n2)cc1` it was -2.17%; in that of `Cc1ccc(C(C)C)c(OCC(=O)Nc2ccc(S(=O)(=O)Nc3onc(C)c3C)cc2)c1`, 0.352%; in that of `N#Cc1ccc(CN2C(=O)c3ccccc3Sc3ccc(C(=O)OCc4ccco4)cc32)cc1`, 17.3%. In the case of `C/C=C/C(=O)OCC(=O)Nc1ccccc1Br` it was active: 46.7%.

Regarding `Cc1ccc(C2c3c(oc4ccccc4c3=O)C(=O)N2c2ccc(C)cn2)cc1` (stereo unspecified), the inhibition was -5.33%. Under `Cn1c(=NC(=O)c2ccc3c(c2)OCCO3)sc2cc(S(C)(=O)=O)ccc21` stands -4.4%; under `COc1ccccc1CNC(=O)C(CC(C)C)NS(=O)(=O)c1ccc2c(c1)oc(=O)n2C` (stereo unspecified), -21.2%.

Turning to `CCC(=O)N1CCc2cc(S(=O)(=O)NCCC(=O)NCc3ccccc3Cl)ccc21`, the inhibition was -2.32%. In the case of `Cc1ccccc1-c1noc(C(C)NC(=O)c2ccco2)n1` (stereo unspecified), the inhibition was -11.5%. On to `CCOC(=O)c1ccc(NC(=O)C2CCCN(c3ccc(Sc4ccc(C)cc4)nn3)C2)cc1` (stereo unspecified), for which the inhibition is -28.1%. For the compound `CCN(C(=O)CN(C)S(=O)(=O)c1ccc2c(c1)c(=O)n(C)c(=O)n2C)c1ccc(OC)cc1`, the inhibition is -1.89%. `COC(=O)c1ccc(-n2nnc(-c3nc(-c4ccc5c(c4)OCO5)no3)c2C)cc1`: the inhibition came out at 4.9%. Under `CC(=O)NCCNc1nc2c(S(=O)(=O)c3ccc(C)c(C)c3)nnn2c2ccc(Cl)cc12` stands -2.08%.

`Cc1cc(Br)ccc1NC(=O)CCS(=O)(=O)c1cccc2nsnc12`: the inhibition was -0.719%.

For `O=C(NCc1ccccc1)c1ccc(NC(=O)c2nsc3ccccc23)cc1`, the inhibition was 18.6%. In the case of `CCOC(=O)/C=C/C(=O)Nc1ccc(S(=O)(=O)N2CCCCCC2)cc1` it was active: 31.3%; in that of `COc1ccc(CNC(=O)CCC(=O)N2CC3CCCN3c3ccccc32)cc1` (stereo unspecified), 0.116%. As to `O=C1C2CCCN2C(c2cccc(Br)c2)N1c1ccc(F)cc1` (stereo unspecified), the inhibition was active: 37.7%. In the case of `COC(=O)/C(=C/c1ccccc1)NC(=O)c1ccco1` it was active: 38.6%; in that of `CC(=O)N1CCCc2cc(S(=O)(=O)N3CCC(C(=O)NCc4ccc(N(C)C)cc4)CC3)ccc21`, 11.9%. As for `COc1cc(CN(CC2CCCO2)C(=O)c2ccc(F)cc2)cc(OC)c1OC` (stereo unspecified), the inhibition is -4.17%. Take `CCCNC(=O)c1ccc(-n2c(-c3ccccc3)cc3c2CCCCC3)cc1`: the inhibition is -18.1%.

Regarding `CCOc1cccc(CC(=O)Nc2ccc3nc(N4CCCCC4)cc(C)c3c2)c1OCC`, the inhibition was -12.8%. In the case of `Cc1ccc(NC(=O)Nc2nnc(N3CCCC3)s2)c(C)c1` it was -8.29%; in that of `C=CC(C)(C)c1[nH]cnc1/C=C1\NC(=O)C(C(C)C)NC1=O` (stereo unspecified), active: 76.1%.

Take `COc1ccc(-c2cn3nc(N4CCC(C(=O)Nc5cccc(Cl)c5)CC4)sc3n2)cc1`: the inhibition is -5.93%.

Turning to `Cc1ccc(CNC(=O)Cc2coc3cc(C)cc(C)c23)cc1`, the inhibition is 12.8%. In the case of `Cc1cccc(N2CCN(C(=O)CSCc3ccc(F)cc3)CC2)c1C` it was 0.0083%. Consider `CCCCN(C)C(=O)C1CCCN(c2ncnc3onc(-c4ccc(F)cc4)c23)C1` (stereo unspecified), for which the inhibition is -1.5%. In the case of `CCN(CC)S(=O)(=O)c1ccc2c(c1)c(=O)c(C(=O)NCc1ccccc1)cn2C` it was 14.2%; in that of `Cc1ccc(Cl)c2sc(NC(=O)CS(=O)(=O)c3ccc(Cl)cc3)nc12`, -20.7%; in that of `CCOc1ccc(CNS(=O)(=O)c2c(C(=O)N3CCCCCC3)c(C)n(C)c2C)cc1OC`, -9.33%. Under `Cc1ccc(-c2c(C(=O)Nc3ccc(F)c(F)c3)oc(=O)c3ccccc23)cc1` stands -9.7%; under `O=C(NCCSCc1ccc(Cl)cc1)C1CCN(S(=O)(=O)Cc2ccccc2)CC1`, -7.41%. In the case of `O=C(CN1C(=O)C2CCCCN2c2ccc(C(=O)N3CCCC3)cc21)NCc1cccc(Cl)c1` (stereo unspecified) it was -7.66%. For the compound `CN(C)c1ccc(CNC(=O)c2cc3cc(S(=O)(=O)N4CCCCC4)ccc3n2C)cc1`, the inhibition was -13.8%.
